# Reference: the supplement of paper PMC4604168 (melanoma cell lines)
# The other results are listed elsewhere or left out. Single values are uncertain, as repeats are few or missing.
# Tested on: G361
# Assay: cell count relative to DMSO control; melanoma cells; higher = more viable cells
# Conditions: library dose: standard library concentration; 72 h
# 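Also: cells treated in 1,536-well plates, then fixed and DAPI-stained, with nuclei counted from automated high-throughput microscope images.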
row,Compound,cell count
1,"NC(=O)c1ccc(N(C(N)=O)c2c(F)cccc2F)nc1-c1ccc(F)cc1F + O=C1NC(=O)/C(=C/c2ccc(-c3ccc(F)cc3O)o2)S1 [AS252424] (first compound 2 µM, partner dose 5 µM)",81.7%
2,"NC(=O)c1ccc(N(C(N)=O)c2c(F)cccc2F)nc1-c1ccc(F)cc1F + COc1ccc(COc2ccc(Cc3cnc(N)nc3N)cc2OC)cc1 [GW2580] (first compound 2 µM, partner dose 5 µM)",103%
3,"NC(=O)c1ccc(N(C(N)=O)c2c(F)cccc2F)nc1-c1ccc(F)cc1F + O=C(O)C(=O)Nc1sc2c(c1C(=O)O)CCNC2 [TCS401] (first compound 2 µM, partner dose 8.33333 µM)",81.6%
4,"CC(C)(C)c1cnc(CSc2cnc(NC(=O)C3CCNCC3)s2)o1 + CC(C)CCN1c2nc(Nc3cc(F)c(O)c(F)c3)ncc2N(C)C(=O)C1C [BID1870] (first compound 0.05 µM, partner dose 1 µM)",60.6%
5,"COc1cc2c(Oc3ccc4[nH]c(C)cc4c3F)ncnc2cc1OCCCN1CCCC1 [cediranib] + COc1ccc(-c2ccc3c(N4CCOCC4)nc(N4C[C@@H](C)O[C@@H](C)C4)nc3n2)cc1CO [KU0063794] (first compound 2 µM, partner dose 0.1 µM)",93.4%
6,"CCc1ccc(CCOc2ccc(CC3SC(=O)NC3=O)cc2)nc1 (stereo not given) [pioglitazone] + Cn1cc(/C=C2\C(=O)Nc3cccnc32)c2ccccc21 [GW441756] (first compound 10 µM, partner dose 2 µM)",85.9%
7,"NC(=O)c1ccc(N(C(N)=O)c2c(F)cccc2F)nc1-c1ccc(F)cc1F + O=c1cc(-c2cccc3c2Sc2ccccc2S3)oc(N2CCOCC2)c1 [KU55933] (first compound 2 µM, partner dose 5 µM)",57.6%
8,"CN(NC(=O)CC(=O)NN(C)C(=S)c1ccccc1)C(=S)c1ccccc1 + CCc1ccc(CCOc2ccc(CC3SC(=O)NC3=O)cc2)nc1 [pioglitazone] (first compound 0.03 µM, partner dose 10 µM)",43%
9,"NC(=O)c1ccc(N(C(N)=O)c2c(F)cccc2F)nc1-c1ccc(F)cc1F + c1cc(-c2cnn3cc(-c4ccc(OCCN5CCCCC5)cc4)cnc23)ccn1 [Dorsomorphin] (first compound 2 µM, partner dose 2 µM)",64.3%
10,"Cc1ccc(NC(=O)c2cccc(N(C)C)c2)cc1NC(=O)c1ccc(O)cc1 + COc1ccc(-c2ccc3c(N4CCOCC4)nc(N4C[C@@H](C)O[C@@H](C)C4)nc3n2)cc1CO [KU0063794] (first compound 10 µM, partner dose 0.1 µM)",79.4%
11,"NC(=O)c1ccc(N(C(N)=O)c2c(F)cccc2F)nc1-c1ccc(F)cc1F + CCN(CC)CCCCNc1ncc2cc(-c3cc(OC)cc(OC)c3)c(NC(=O)NC(C)(C)C)nc2n1 [PD173074] (first compound 2 µM, partner dose 0.5 µM)",117%
12,"CCCCCCCCc1ccc(CCC(N)(CO)CO)cc1 [fingolimod] + Oc1nc(-c2ccc(C(F)(F)F)cc2)nc2c1CSCC2 [XAV939] (first compound 10 µM, partner dose 10 µM)",73.8%
13,"NC(=O)c1ccc(N(C(N)=O)c2c(F)cccc2F)nc1-c1ccc(F)cc1F + COc1cc2ncnc(Nc3ccc(Oc4ccccc4)cc3)c2cc1OC [SrcI1] (first compound 2 µM, partner dose 10 µM)",62%
14,"CCCCCCCCc1ccc(CCC(N)(CO)CO)cc1 [fingolimod] + Oc1cc(-c2nc(-c3ccccc3)[nH]c2-c2ccncc2)ccc1Cl [L779450] (first compound 10 µM, partner dose 1 µM)",0.581%
15,"NC(=O)c1ccc(N(C(N)=O)c2c(F)cccc2F)nc1-c1ccc(F)cc1F + Oc1cc(-c2nc(-c3ccccc3)[nH]c2-c2ccncc2)ccc1Cl [L779450] (first compound 2 µM, partner dose 1 µM)",58.7%
16,"COc1cc2c(Oc3ccc4[nH]c(C)cc4c3F)ncnc2cc1OCCCN1CCCC1 [cediranib] + COC(=O)c1sccc1S(=O)(=O)Nc1ccc(Nc2ccccc2)cc1OC [GSK0660] (first compound 2 µM, partner dose 5 µM)",107%
17,"NC(=O)c1ccc(N(C(N)=O)c2c(F)cccc2F)nc1-c1ccc(F)cc1F + Cc1cc([N+](=O)[O-])ccc1NS(=O)(=O)c1cc(Cl)ccc1Cl [FH535] (first compound 2 µM, partner dose 5 µM)",41.8%
18,"Cc1ccc(NC(=O)c2cccc(N(C)C)c2)cc1NC(=O)c1ccc(O)cc1 + N#Cc1c(O)c2c(-c3ccc(-c4ccccc4O)cc3)csc2[nH]c1=O [A769662] (first compound 10 µM, partner dose 10 µM)",95.9%

row,Compound,cell count
1,"NC(=O)c1ccc(N(C(N)=O)c2c(F)cccc2F)nc1-c1ccc(F)cc1F + COc1cc(N2CCC(N3CCN(C)CC3)CC2)ccc1Nc1ncc(Cl)c(Nc2ccccc2S(=O)(=O)C(C)C)n1 [NVP-TAE684] (first compound 2 µM, partner dose 0.4 µM)",72.8%
2,"CCc1ccc(CCOc2ccc(CC3SC(=O)NC3=O)cc2)nc1 (stereo not given) [pioglitazone] + COc1ccc2c(c1)CCC1C2CCC2(C)C(NCCCCCCN3C(=O)C=CC3=O)CCC12 [U73122] (first compound 10 µM, partner dose 2 µM)",65.9%
3,"NC(=O)c1ccc(N(C(N)=O)c2c(F)cccc2F)nc1-c1ccc(F)cc1F + COc1ccc2c(c1)CCC1C2CCC2(C)C(NCCCCCCN3C(=O)C=CC3=O)CCC12 [U73122] (first compound 2 µM, partner dose 2 µM)",73%
4,"NC(=O)c1ccc(N(C(N)=O)c2c(F)cccc2F)nc1-c1ccc(F)cc1F + O=S(=O)(c1ccccc1)N(CC(F)(F)F)c1ccc(C(O)(C(F)(F)F)C(F)(F)F)cc1 [T0901317] (first compound 2 µM, partner dose 7 µM)",79.7%
5,"CCCCCCCCc1ccc(CCC(N)(CO)CO)cc1 [fingolimod] + Cc1cc([N+](=O)[O-])ccc1NS(=O)(=O)c1cc(Cl)ccc1Cl [FH535] (first compound 10 µM, partner dose 5 µM)",32.3%
6,"CCCCCCCCc1ccc(CCC(N)(CO)CO)cc1 [fingolimod] + COc1ccc2c(c1)CCC1C2CCC2(C)C(NCCCCCCN3C(=O)C=CC3=O)CCC12 [U73122] (first compound 10 µM, partner dose 2 µM)",3.66%
7,"NC(=O)c1ccc(N(C(N)=O)c2c(F)cccc2F)nc1-c1ccc(F)cc1F + COC(=O)c1sccc1S(=O)(=O)Nc1ccc(Nc2ccccc2)cc1OC [GSK0660] (first compound 2 µM, partner dose 5 µM)",87.2%
8,"CCCCCCCCc1ccc(CCC(N)(CO)CO)cc1 [fingolimod] + Cc1cc(Nc2cc(N3CCN(C)CC3)nc(/C=C/c3ccccc3)n2)n[nH]1 [ENMD2076] (first compound 10 µM, partner dose 0.2 µM)",21%
9,"NC(=O)c1ccc(N(C(N)=O)c2c(F)cccc2F)nc1-c1ccc(F)cc1F + COc1ccc(-c2ccc3c(N4CCOCC4)nc(N4C[C@@H](C)O[C@@H](C)C4)nc3n2)cc1CO [KU0063794] (first compound 2 µM, partner dose 0.1 µM)",84.4%
10,"CCCCCCCCc1ccc(CCC(N)(CO)CO)cc1 [fingolimod] + O=S(=O)(c1ccccc1)N(CC(F)(F)F)c1ccc(C(O)(C(F)(F)F)C(F)(F)F)cc1 [T0901317] (first compound 10 µM, partner dose 7 µM)",0.777%
11,"CCCCCCCCc1ccc(CCC(N)(CO)CO)cc1 [fingolimod] + c1cc(-c2cnn3cc(-c4ccc(OCCN5CCCCC5)cc4)cnc23)ccn1 [Dorsomorphin] (first compound 10 µM, partner dose 2 µM)",0.827%
12,"CC(C)(C)c1cnc(CSc2cnc(NC(=O)C3CCNCC3)s2)o1 + NCC(=O)Nc1ccc(-n2nc(C(F)(F)F)cc2-c2ccc3c(ccc4ccccc43)c2)cc1 [OSU03012] (first compound 0.05 µM, partner dose 5 µM)",76%
13,"NC(=O)c1ccc(N(C(N)=O)c2c(F)cccc2F)nc1-c1ccc(F)cc1F + O=C(Nc1ccccc1)c1cc([N+](=O)[O-])ccc1Cl [GW9662] (first compound 2 µM, partner dose 10 µM)",67.7%
14,"CCCCCCCCc1ccc(CCC(N)(CO)CO)cc1 [fingolimod] + N#Cc1c(O)c2c(-c3ccc(-c4ccccc4O)cc3)csc2[nH]c1=O [A769662] (first compound 10 µM, partner dose 10 µM)",1%
15,"CCCCCCCCc1ccc(CCC(N)(CO)CO)cc1 [fingolimod] + CC(C)CCN1c2nc(Nc3cc(F)c(O)c(F)c3)ncc2N(C)C(=O)C1C [BID1870] (first compound 10 µM, partner dose 1 µM)",40.3%
16,"NC(=O)c1ccc(N(C(N)=O)c2c(F)cccc2F)nc1-c1ccc(F)cc1F + N#Cc1c(O)c2c(-c3ccc(-c4ccccc4O)cc3)csc2[nH]c1=O [A769662] (first compound 2 µM, partner dose 10 µM)",108%
17,"CCCCCCCCc1ccc(CCC(N)(CO)CO)cc1 [fingolimod] + O=C(O)c1ccc(-c2c[nH]c3ncc(-c4ccccc4)cc23)cc1C1CCCC1 [GSK650394] (first compound 10 µM, partner dose 0.8 µM)",3.96%
